From ChEMBL document CHEMBL4888484, “Replenishing the malaria drug discovery pipeline: Screening and hit evaluation of the MMV Hit Generation Library 1 (HGL1) against asexual blood stage Plasmodium falciparum ,using a nano luciferase reporter read-out” (2022)
Screen size: about 150,000 compounds; about 540 (0.36%) showed an effect of 50% or more. The list shows a part of the results.

The compounds below were run on Plasmodium falciparum (assay: Primary screen in NF54 nanoGlo assay, in single point, at 2uM, 72h; a lower Z score goes with more inhibition). Conditions: timepoint 72 hour.
Assay type: functional, Erythrocyte

SMILES | % Inhibition [%] | Z score
COc1cc(OC)cc(C(=O)N[C@H]2CCN(C(N)=O)C2)c1 | -7 | 0.95
O=C(COc1ccc(-c2ccccc2)cc1Cl)Nc1nncs1 | -7 | 1.13
C[C@H]1CCN(c2nc(-c3ccccn3)nc3c2CCC3)C1 | 90 | -12.13
Cc1ccc(N2CCCC2=O)c(C(=O)N[C@H]2COc3ccccc3C2=O)c1 | -3 | 0.43
CCc1cccc(OC2CN(c3cc(N)ncn3)C2)c1 | 4 | -0.56
O=C(c1ccc(-c2cnccn2)cc1)N1CCCCC1 | -17 | 1.88
CCC/C=C/c1ncc(F)c(N2CCOCC2)n1 | 4 | -0.8
CCN(CC)C(=O)C[C@@H]1c2nc(NC(=O)c3ccco3)sc2C[C@@H]2[C@](C)(CO)[C@H](O)CC[C@]21C | -4 | 0.68
COC[C@@]12CCN(C(=O)C3CCC3)C[C@@H]1CN(S(C)(=O)=O)C2 | -11 | 1.32
CCS(=O)(=O)N1CCCC(C(=O)N[C@@H](CO)CC(C)C)C1 (stereo not given in full) | -3 | 0.35
Cc1ccc2oc(-c3nnc(C(=O)NCc4ccccc4)o3)c(C)c2c1 | 10 | -1.18
NC(=O)CS(=O)(=O)NC(=O)C1CCCCCCC1 | 3 | -0.53
O=C1NCCN(Cc2cc(CN3CCCC3)cs2)[C@H]1c1cccc(F)c1 | 2 | -0.35
Cc1nc(N2CCOCC2)nc2c1CCCC2 | 33 | -0.57
COc1ccc(N2CCN(c3ncccc3-c3nc(-c4cccc(C)c4)no3)CC2)cc1 | 22 | -2.6
Cc1sc(-c2nc(C(C)C)cs2)cc1S(=O)(=O)NCc1ccc2c(c1)OCO2 | -14 | 1.71
CCOC(=O)Cc1csc(CNS(=O)(=O)N(C)C(C)C)n1 | 7 | -1.27
CC(C)(C)c1nc(CN2C[C@H]3CCC(=O)c4cccc2c43)n[nH]1 | 20 | -2.48
O=C(Nc1ccccc1C(=O)NCCc1nnc2ccccn12)c1ccco1 | -9 | 1.66
CCOCc1cc(=O)n2nc(N)nc2[nH]1 | -8 | 1.35
O=C(c1ccncc1Br)N1CCCCCCC1 | -10 | 0.91
CCOc1ccc(OC)cc1NCC1CCN(C(=O)C(C)(C)C)CC1 | -12 | 1.27

SMILES | % Inhibition [%] | Z score
Cc1ccn2cc(CNC(=O)CC[C@H]3CCCO3)nc2n1 | -14 | 2.16
COc1ccc(-c2nc3cc(C)ccc3cc2CN2CCC[C@H](C#N)C2)cc1OC | -18 | 2.36
O=C(NCc1cccnc1)NC1(CO)CCCC1 | -2 | 0.31
CN(C)c1nc(N(C)Cc2ccon2)ncc1F | -7 | 0.98
COc1ccc(CN2C(=O)N[C@@H](CC(=O)Nc3cccc4[nH]ccc34)C2=O)cc1 | 8 | -1
COc1c(CNC2CCN(C(=O)C(C)C)CC2)c(C)nn1C | -7 | 1.06
C#CCCC1(CCC(=O)N2CCC[C@H](c3ccccn3)C2)N=N1 | -16 | 1.91
CCCN1CCC[C@H]1c1nc(-c2ccc(F)cc2)no1 | -23 | 2.51
O=C(CC(=O)N1CCn2cccc2[C@H]1c1cccc(Cl)c1)Nc1ccc(F)cc1 | -4 | 0.58
NC(=NC[C@H](O)c1cccc(F)c1)N1CCN(c2nccs2)CC1 | 2 | -0.28
Cc1ccc(-n2cc(-c3ccccc3)nc2NC(=O)CN(C(=O)c2ccc3c(c2)OCO3)C2CC2)cc1C | -19 | 2.64
CNC(=O)[C@@H]1CC[C@](C)(C(=O)N2Cc3cnc(C)cc3C2)C1(C)C | -7 | 1.17
CC(c1ccc(S(C)(=O)=O)cc1)N1CCC(N2CCCC2)C1 (stereo not given) | -10 | 0.97
Cc1cn(C)nc1CN1CC[C@H]2[C@@H](C1)NC(=O)N2C | -4 | 0.41
Cc1nnc([C@@H](NC(=O)CCc2cccnc2)C(C)C)[nH]1 | -6 | 1.23
Cc1nsc(NC(=O)COc2cccc(C)c2C)n1 | 7 | -1.07
C[C@@H](c1cnn(C)c1)N(C)c1cc(N2CCOCC2)ncn1 | -11 | 0.96
Cc1[nH]c(CN2CCC[C@H](C(=O)N3CCCC3)C2)cc1C#N | 4 | -0.55
C=C(C)CN(CC)C(=O)Nc1ccn(CCCOC)n1 | -10 | 1.32
CC1CCOC1C(=O)N(CC(F)(F)F)C(C)C1CC1 (stereo not given) | 4 | -0.44
COc1ccc(CNC(=O)c2cccn2-c2cccnc2)cc1 | -10 | 0.97
COc1cccc(NC(=O)Cn2nc3c4ccccc4ncn3c2=O)c1 | -9 | 1.56

SMILES | % Inhibition [%] | Z score
COc1ccc(CNC(=O)[C@@H]2CCN(c3ccc(F)cc3)C2=O)cc1 | -4 | 0.38
CC(=O)NCCN(CCC(=O)Nc1ccc(Cl)cc1F)[C@@H](C)C(=O)OC(C)(C)C | 2 | -0.18
CNC(=O)c1cccc(N2CC[C@@]3(CCCN(C4CCCC4)C3=O)C2)n1 | -3 | 0.29
Cc1cc(C(=O)N(Cc2cccs2)c2ccc(F)cc2F)on1 | 13 | -1.31
NC(=O)c1ccnc(/C=C/C2CCCCC2)c1 | -3 | 0.42
Clc1ccc(-c2[nH]ncc2CN2CCC(Cc3ccccc3)CC2)c(Cl)c1 | -7 | 1.3
CNC(=O)c1cnc(C=Cc2c(C3CC3)cnn2C)s1 | -3 | 0.42
COc1ccc(-c2ncc3c(n2)CCN(S(=O)(=O)c2ccc(F)cc2)C3)cc1 | -3 | 0.44
Fc1ccc(CN[C@H](c2ccc3c(c2)CCC3)c2cccs2)c(F)c1 | 6 | -0.73
CCc1ccccc1NC(=O)CN1CCN(Cc2c(C)cc(C)cc2C)S1(=O)=O | -21 | 1.87
CN(C)c1cccc(NC(=O)c2ccc(S(C)(=O)=O)cc2)n1 | -1 | 0.19
O=C(O)c1ccc(CN2CC[C@H](c3nnc(-c4ccccc4)o3)C2)cc1 | -1 | 0.16
O=C(c1ccc2ncsc2c1)N1CCC[C@H](Oc2cnccn2)C1 | 6 | -0.73
CN(C[C@@H]1C[C@H](F)CN1Cc1cccs1)C1CCOC1 (stereo not given in full) | -6 | 0.66
Cc1noc(C)c1CN1C[C@H]2CC[C@@H](C1)N(C(=O)Nc1ccccc1F)C2 | 1 | -0.14
C#CCNC(=O)CCCC(=O)c1c(C)cc(C)cc1C | -2 | 0.38
Cc1cc(Br)cc(Cl)c1OCC(=O)NCC(C)C | -11 | 2.08
Cc1nn(C)c2nc(Nc3c(N4CCCC4)nn(C)c3C)sc12 | -8 | 0.88
CCc1noc(CO[C@H]2CCCN(C(=O)Cc3cccs3)C2)n1 | 3 | -0.5
c1cnn(-c2ccc(CN3CCCC4CCCCC43)cc2)c1 (stereo not given) | -3 | 0.49
CCOC1CC(NC(=O)N2CCCC(C)(CO)C2)C12CCC2 (stereo not given) | -7 | 0.89
Cc1ccc(NC(=O)Cn2c(=O)n(CCc3cccs3)c(=O)c3sccc32)cc1C | 2 | -0.24

SMILES | % Inhibition [%] | Z score
CCc1nnc(-c2ccc3ccn(CC(=O)N4CCN(c5ccc(OC)cc5)CC4)c3c2)o1 | -1 | 0.14
N#Cc1c(NC(=O)c2cc(Cl)sc2Cl)sc2c1CCCC2 | -13 | 2.29
Cc1cnc(CN(C)CCN2CCOCC2)c(C)c1O | -5 | 1.04
Cc1cccc(-c2nc3ccc(C(=O)NCCN4CCOCC4)cc3nc2-c2cccc(C)c2)c1 | 11 | -1.38
CN(C(=O)C1CCCCCC1)[C@H]1CCCN(C(=O)C2CCCCCC2)CC1 | -8 | 1.12
CC(C)c1nc(CNc2nc(-c3ccccc3)no2)no1 | -6 | 0.96
Cc1nn(-c2ccc(C(=O)NCCc3cccs3)cn2)c(C)c1C | 0 | -0.01
CCOc1ccccc1CNC(=O)C1CCN(c2c(C(=O)N3CCCC3)cnc3snc(C)c23)CC1 | 4 | -0.52
Cc1cccc2c(N3CC[C@H]4CCCC[C@H]43)ncnc12 | -6 | 0.7
CNc1cc(-c2nc(CC3CCN(C)CC3)nn2CC(F)(F)F)ccn1 | -9 | 1.2
Cc1ccc(C)c(OC2CCN(S(=O)(=O)c3c(N)noc3C)CC2)c1 | -9 | 1.53
Cc1nnc(NC2CCCCC2)nc1O | -45 | 5.28
CC[C@H](Oc1cccc(C)c1)C(=O)NS(=O)(=O)c1sc(C)nc1C | -6 | 1.05
C[C@H]1Cc2cc(C(=O)N3CCC4(CC3)c3nc[nH]c3CCN4C)ccc2O1 | -11 | 1.51
CCC(=O)Nc1c(-c2ccccn2)nsc1C(=O)N[C@@H](C)CC | -2 | 0.23
Cc1sc(-c2noc(C(C)C)n2)cc1S(=O)(=O)N1CCC[C@H](C(=O)N2CCN(C)CC2)C1 | 4 | -0.4
CCCC[C@H]1C(=O)NCCN1C(=O)Nc1cccnc1OC | -7 | 1.1
Cc1noc([C@@H]2CC[C@H](CNCC(C(C)C)C(C)C)O2)n1 | -16 | 1.96
O=C(Nc1cccnc1)[C@H]1CC(=O)N(C2CCOCC2)C1 | -2 | 0.38
